# Read-outs that look alike come from different tables or passages of the source. These are yes or no findings as the source states them, for the method shown. In cells and extracts the contact can be indirect. Some results given as binding are weak or reduced against the parent protein; the word gives no strength. Where a sequence is shown, tags or fusion partners need not be part of it.
# Sequences of proteins named here, by UniProt entry; tags and fusion partners are left off.
# UniProt P41238: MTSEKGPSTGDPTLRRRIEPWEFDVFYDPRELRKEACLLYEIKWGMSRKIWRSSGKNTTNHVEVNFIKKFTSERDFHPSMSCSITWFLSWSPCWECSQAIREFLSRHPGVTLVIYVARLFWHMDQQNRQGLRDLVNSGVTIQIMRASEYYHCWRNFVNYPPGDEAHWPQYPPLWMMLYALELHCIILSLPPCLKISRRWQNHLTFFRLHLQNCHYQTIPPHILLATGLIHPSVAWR
# B1: mouse APOBEC3, 9-exon isoform, [35S]methionine-labeled, in vitro translated (protein, UniProt Q99J72 1-440)
# chain: MQPQRLGPRAGMGPFCLGCSHRKCYSPIRNLISQETFKFHFKNLGYAKGRKDTFLCYEVTRKDCDSPVSLHHGVFKNKDNIHAEICFLYWFHDKVLKVLSPREEFKITWYMSWSPCFECAEQIVRFLATHHNLSLDIFSSRLYNVQDPETQQNLCRLVQEGAQVAAMDLYEFKKCWKKFVDNGGRRFRPWKRLLTNFRYQDSKLQEILRPCYISVPSSSSSTLSNICLTKGLPETRFWVEGRRMDPLSEEEFYSQFYNQRVKHLCYYHRMKPYLCYQLEQFNGQAPLKGCLLSEKGKQHAEILFLDKIRSMELSQVTITCYLTWSPCPNCAWQLAAFKRDRPDLILHIYTSRLYFHWKRPFQKGLCSLWQSGILVDVMDLPQFTDCWTNFVNPKRPFWPWKGLEIISRRTQRRLRRIKESWGLQDLVNDFGNLQLGPPMS
# modifications: [35S]methionine-labeled
# B2: mouse APOBEC2, [35S]methionine-labeled, in vitro translated (protein, UniProt Q9WV35 1-224)
# chain: MAQKEEAAEAAAPASQNGDDLENLEDPEKLKELIDLPPFEIVTGVRLPVNFFKFQFRNVEYSSGRNKTFLCYVVEVQSKGGQAQATQGYLEDEHAGAHAEEAFFNTILPAFDPALKYNVTWYVSSSPCAACADRILKTLSKTKNLRLLILVSRLFMWEEPEVQAALKKLKEAGCKLRIMKPQDFEYIWQNFVEQEEGESKAFEPWEDIQENFLYYEEKLADILK
# modifications: [35S]methionine-labeled
# B3: human ACF (APOBEC1 complementation factor), [35S]methionine-labeled, in vitro translated (protein, UniProt Q9NQ94 1-594)
# chain: MESNHKSGDGLSGTQKEAALRALVQRTGYSLVQENGQRKYGGPPPGWDAAPPERGCEIFIGKLPRDLFEDELIPLCEKIGKIYEMRMMMDFNGNNRGYAFVTFSNKVEAKNAIKQLNNYEIRNGRLLGVCASVDNCRLFVGGIPKTKKREEILSEMKKVTEGVVDVIVYPSAADKTKNRGFAFVEYESHRAAAMARRKLLPGRIQLWGHGIAVDWAEPEVEVDEDTMSSVKILYVRNLMLSTSEEMIEKEFNNIKPGAVERVKKIRDYAFVHFSNREDAVEAMKALNGKVLDGSPIEVTLAKPVDKDSYVRYTRGTGGRGTMLQGEYTYSLGQVYDPTTTYLGAPVFYAPQTYAAIPSLHFPATKGHLSNRAIIRAPSVREIYMNVPVGAAGVRGLGGRGYLAYTGLGRGYQVKGDKREDKLYDILPGMELTPMNPVTLKPQGIKLAPQILEEICQKNNWGQPVYQLHSAIGQDQRQLFLYKITIPALASQNPAIHPFTPPKLSAFVDEAKTYAAEYTLQTLGIPTDGGDGTMATAAAAATAFPGYAVPNATAPVSAAQLKQAVTLGQDLAAYTTYEVYPTFAVTARGDGYGTF
# modifications: [35S]methionine-labeled
# What was measured:
# Test in all cases: pull-down; purified GST-DND1 (or GST) incubated with 40 uL [35S]methionine-labeled in vitro translated protein (reticulocyte lysate) and Glutathione Sepharose 4B beads; beads washed, eluted at 95 C, NuPAGE-Mes gel; control beads only; treatment of the APOBEC3-GST-DND1 complexes with RNase or DNase for 1 h did not affect binding; only the target purified
# GST-DND1α (mouse) [1] = target: T1, GST-DND1α (mouse) (UniProt Q6VY05)
# T1 sequence: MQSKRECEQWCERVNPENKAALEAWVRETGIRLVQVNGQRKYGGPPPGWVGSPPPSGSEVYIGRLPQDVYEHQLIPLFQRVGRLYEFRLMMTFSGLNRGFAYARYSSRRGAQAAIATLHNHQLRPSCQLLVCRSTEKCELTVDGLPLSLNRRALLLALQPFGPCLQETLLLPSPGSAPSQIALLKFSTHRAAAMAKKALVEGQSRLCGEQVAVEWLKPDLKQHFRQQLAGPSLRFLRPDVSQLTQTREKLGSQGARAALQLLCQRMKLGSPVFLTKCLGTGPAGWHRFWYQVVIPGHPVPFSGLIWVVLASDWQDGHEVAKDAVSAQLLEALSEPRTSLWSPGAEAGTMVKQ
# GST-DND1β (mouse) = target: T2, GST-DND1β (mouse) (UniProt Q6VY05)
# T2 sequence: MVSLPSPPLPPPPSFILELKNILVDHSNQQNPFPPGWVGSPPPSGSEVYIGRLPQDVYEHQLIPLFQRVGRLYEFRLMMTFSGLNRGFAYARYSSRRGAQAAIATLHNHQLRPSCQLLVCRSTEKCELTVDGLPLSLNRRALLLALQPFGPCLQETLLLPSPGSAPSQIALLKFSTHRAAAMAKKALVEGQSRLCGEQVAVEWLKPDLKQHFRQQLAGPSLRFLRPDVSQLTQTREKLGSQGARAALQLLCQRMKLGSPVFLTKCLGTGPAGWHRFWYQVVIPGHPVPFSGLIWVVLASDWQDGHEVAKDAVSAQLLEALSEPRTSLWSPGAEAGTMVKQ
# GST-DND1α (mouse) [2] = target: T1, GST-DND1α (mouse); remark: listed apart in the source
molecule,measurement,setting,value
"human APOBEC1, [35S]methionine-labeled, in vitro translated (from UniProt P41238 1-236)",binding,GST-DND1α (mouse) [1],binds weakly
B1,binding,GST-DND1β (mouse),binds
same,binding,GST-DND1α (mouse) [2],binds
B2,binding,GST-DND1α (mouse) [2],no binding
B3,binding,GST-DND1α (mouse) [2],no binding
